Data: publication PMC4336329 (PLoS ONE, 2015)
The whole screen tested about 310,000 compounds, of which about 2,200 (0.71%) showed an effect of 50% or more. The effect is printed as a negative number. Some of the results follow.

Target: human ether-à-go-go-related gene (hERG) potassium channel (human, UniProt Q12809)
Test: primary screen, population patch clamp on CHO cells stably expressing hERG

Chain of human ether-à-go-go-related gene (hERG) potassium channel (Q12809 whole entry, looked up): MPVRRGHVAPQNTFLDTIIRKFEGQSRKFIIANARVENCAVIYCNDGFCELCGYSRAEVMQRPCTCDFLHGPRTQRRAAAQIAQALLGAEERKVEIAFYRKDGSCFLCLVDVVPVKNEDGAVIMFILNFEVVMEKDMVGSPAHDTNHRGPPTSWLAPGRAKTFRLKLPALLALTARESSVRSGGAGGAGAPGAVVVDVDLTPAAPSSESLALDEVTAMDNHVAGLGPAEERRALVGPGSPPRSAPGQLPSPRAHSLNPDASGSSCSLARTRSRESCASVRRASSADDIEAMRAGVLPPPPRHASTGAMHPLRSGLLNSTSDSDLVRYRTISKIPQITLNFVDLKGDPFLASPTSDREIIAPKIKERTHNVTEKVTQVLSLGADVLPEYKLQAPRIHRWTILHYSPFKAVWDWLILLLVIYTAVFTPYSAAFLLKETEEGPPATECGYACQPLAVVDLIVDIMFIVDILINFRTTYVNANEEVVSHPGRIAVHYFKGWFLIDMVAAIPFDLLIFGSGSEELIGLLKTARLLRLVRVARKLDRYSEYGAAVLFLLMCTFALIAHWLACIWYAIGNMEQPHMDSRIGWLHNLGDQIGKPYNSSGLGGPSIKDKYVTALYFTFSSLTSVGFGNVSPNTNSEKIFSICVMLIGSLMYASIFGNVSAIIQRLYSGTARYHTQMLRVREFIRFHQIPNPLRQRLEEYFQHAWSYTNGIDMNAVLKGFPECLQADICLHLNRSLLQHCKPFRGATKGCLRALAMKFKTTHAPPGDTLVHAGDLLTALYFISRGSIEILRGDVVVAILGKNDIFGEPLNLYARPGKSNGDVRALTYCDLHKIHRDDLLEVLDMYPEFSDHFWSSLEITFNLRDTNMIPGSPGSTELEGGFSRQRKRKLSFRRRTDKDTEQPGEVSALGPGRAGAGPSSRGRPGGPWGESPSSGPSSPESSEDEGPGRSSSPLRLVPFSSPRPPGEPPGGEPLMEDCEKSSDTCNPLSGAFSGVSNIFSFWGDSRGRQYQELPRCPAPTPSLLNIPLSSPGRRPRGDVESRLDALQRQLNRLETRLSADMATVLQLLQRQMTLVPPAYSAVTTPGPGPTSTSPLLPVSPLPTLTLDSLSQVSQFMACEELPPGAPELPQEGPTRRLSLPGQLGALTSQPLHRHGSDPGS

| SMILES | hERG current change (%, negative = inhibition) at 1uM |
| --- | --- |
| CCOC(=O)C1(Cc2ccccc2)CCN(Cc2cn[nH]c2-c2ccccc2)CC1 | 1.58% |
| Cc1nn(C)cc1/C=C/C(=O)c1ccccc1 | -8.56% |
| COc1cc(-c2cc(C(=O)Nc3ccc(S(N)(=O)=O)cc3)c3ccccc3n2)cc(OC)c1OC | 20% |
| Cc1ccc(NC(=O)CSc2ccc3nnc(-c4cccnc4)n3n2)cc1 | 5.38% |
| CCCCNC(=O)CNC(=S)N(CCCN1CCOCC1)Cc1cccs1 | -0.381% |
| CCOc1ccccc1C(=O)NCCCCCC(=O)O | 18.5% |
| CC(=O)c1cccc(NC(=S)N2CCN(CCN3C(=O)c4cccc5cccc(c45)C3=O)CC2)c1 | 11.7% |
| O=C(NCCc1nc2ccccc2[nH]1)/C(=C/c1ccc(F)cc1)NC(=O)c1ccco1 | -25.4% |
| NC(=O)c1c(NC(NC(=O)c2ccco2)(C(F)(F)F)C(F)(F)F)sc2c1CCCC2 | 9.43% |
| O=C(Nc1cccc(Cl)c1N1CCOCC1)c1cccnc1Cl | 8.87% |
| COC(=O)[C@@H](Cc1c[nH]c2ccccc12)NC(=O)c1cc(=O)[nH]c2ccccc12 | 13.2% |
| COc1ccc(C(=O)NCc2ccc(C(=O)NCC(OC)OC)cc2)cc1OC | 11.9% |
| CCC(=O)Nc1cc(OC)c(NC(=O)c2ccccc2)cc1OC | 8.66% |
| Cc1ccc(OCC(=O)NCCNC(=O)c2ccc(C)nc2)cc1 | 22.4% |
| CC(C)(C)c1ccc(S(=O)(=O)NCCOCC(F)(F)C(F)F)cc1 | 14.4% |
| Cc1cc(Cl)c(OCCCn2ccnc2)c(Br)c1 | 1.12% |
| Cc1ccc(S(=O)(=O)N2CCCCC2)cc1NC(=O)COC(=O)c1cc[n+]([O-])cc1 | 5.5% |
| CC(=O)c1c(C)[nH]c(C(=O)CSc2nnc(N)s2)c1C | 11.4% |
| O=c1[nH]c(N2CCCCC2)nc2c1CCCC2 | -3.9% |

| SMILES | hERG current change (%, negative = inhibition) at 1uM |
| --- | --- |
| Cc1nc2ccccc2c2oc(C(=O)N3CCN(c4ccc([N+](=O)[O-])cc4)CC3)cc12 | 13.8% |
| COc1ccc(O)c(CN2CCCC(C(=O)c3ccccc3SC)C2)c1 (centres unmarked) | 13.6% |
| Nc1ccc(CCn2ccnc2)cc1 | 22.6% |
| O=C(c1ccccc1)c1ccc2nc(N3CCCCC3)c3nncn3c2c1 | 14.2% |
| CCOC(=O)n1cc(-c2cnc(CNC(=O)C(C)(c3ccccc3)c3ccccc3)o2)c2ccccc21 | 1.9% |
| Cc1ccc(-c2nc(N)n(C(=O)c3cccs3)n2)cc1 | 16.9% |
| CCCCOc1ccc(C(=O)NCC(=O)NC(C)CCc2ccccc2)cc1 (centres unmarked) | 5.14% |
| O=C(Nc1ccc(NC(=O)c2cccs2)cc1)c1ccc2c(c1)OCO2 | 6.34% |
| COCCNC(=O)c1ccc(N2CCC3(CC2)OCCO3)c([N+](=O)[O-])c1 | 11.7% |
| CCOC(=O)c1c(NC(=O)COC(=O)CNC(=O)c2ccc(Cl)cc2Cl)sc(C(=O)N(C)C)c1C | 20.1% |
| COC(=O)c1ccccc1NC(=O)CSc1nc2cccnc2n1C | 11.5% |
| C=CCNC(=O)c1cccc(OC2CCN(CC(C)(C)C)CC2)c1 | 11.7% |
| CCOC(=O)N1CCN(c2nc(-c3ccc(F)cc3)cs2)CC1 | 12.6% |
| Cc1[nH][nH]c(=O)c1C(c1cc(Br)ccc1O)c1c(C)[nH][nH]c1=O | 12% |
| CCOCC(=O)Nc1cc(C(F)(F)F)ccc1Oc1cccc(Br)c1 | 12.8% |
| CCc1cc2c(=O)[nH]c(COC)nc2s1 | 22.1% |
| Cc1cc2cc3c(cc2nc1SCC(=O)N1CCOCC1)OCO3 | 4.84% |
| CCOc1ccccc1N1Cc2ccccc2C1 | 14.1% |
| Cc1cc(Cl)ccc1OCCCC(=O)N1CCCc2ccccc21 | -3.95% |

| SMILES | hERG current change (%, negative = inhibition) at 1uM |
| --- | --- |
| Cc1ccc(CSc2nnc(CNc3ccc(F)cc3)o2)cc1 | 13.1% |
| Cc1cc(NC(=O)CS(=O)(=O)c2cn(C)c3ccccc23)no1 | 21.7% |
| Cc1ccc(CC23CN4CCN(CC(C4)C2O)C3)c(C)c1 (centres unmarked) | 14.8% |
| Cc1ccsc1S(=O)(=O)N1CCCC(CCC(=O)NCc2ccccc2F)C1 (centres unmarked) | 13.2% |
| Cc1onc(-c2ccccc2Cl)c1-c1nc(-c2ccccn2)no1 | 1.77% |
| CCOC(=O)C1CCCN(S(=O)(=O)c2cccc3nsnc23)C1 (centres unmarked) | 12.1% |
| CCOc1ccc(C2C(C#N)=C(N)Oc3c2c(=O)oc2ccccc32)cc1 (centres unmarked) | -5.07% |
| O=C(Nc1cccc(S(=O)(=O)N2CCOCC2)c1)C1=NN(c2ccccc2)C(=O)CC1 | 6.75% |
| Cc1ccc(C2c3c(oc4cc(C)c(C)cc4c3=O)C(=O)N2CCCN2CCOCC2)cc1 (centres unmarked) | -0.143% |
| Cc1ccc(-n2nc(CN3CCOCC3)c(-c3ccccc3)c2N)cc1Cl | 13.7% |
| CCN(Cc1ccc(NC(C)=O)cc1)CC1CCCN(CCc2cccc(F)c2)C1 (centres unmarked) | 9.42% |
| CN(C)S(=O)(=O)Oc1ccsc1C(=O)Nc1ccc(Br)cc1 | 8.42% |
| Cc1nc(C)c(-c2csc(Nc3cccnc3)n2)s1 | 13.7% |
| Clc1ccc(CO/N=C/c2c(-c3ccccc3)nc3n2CCS3)c(Cl)c1 | 12.8% |
| CC(=O)c1cn(-c2ccc([N+](=O)[O-])cc2)c(=O)n(C)c1=O | -7.77% |
| Cc1ccccc1NC(=O)COC(=O)c1cccc(S(=O)(=O)N2CCCCC2)c1 | 0.757% |
| Cn1ccnc1C(=O)c1cc(SCC(=O)N2CCOCC2)nc2ccccc12 | 10.8% |
| CCOC(=O)[C@H]1[C@H]2COc3ccc(OC)cc3[C@@H]2N2C(=O)CN(Cc3ccco3)C(=O)[C@@]12C | 15% |
